Results taken from publication PMC4336329 (PLoS ONE, 2015).
About 2,200 (0.71%) of roughly 310,000 compounds showed an effect of 50% or more. Effects have a minus sign here. This is one part of the list.

Biological target: human ether-à-go-go-related gene (hERG) potassium channel (human, UniProt Q12809)
Experiment: primary screen, population patch clamp on CHO cells stably expressing hERG

human ether-à-go-go-related gene (hERG) potassium channel, sequence (Q12809 whole entry, looked up): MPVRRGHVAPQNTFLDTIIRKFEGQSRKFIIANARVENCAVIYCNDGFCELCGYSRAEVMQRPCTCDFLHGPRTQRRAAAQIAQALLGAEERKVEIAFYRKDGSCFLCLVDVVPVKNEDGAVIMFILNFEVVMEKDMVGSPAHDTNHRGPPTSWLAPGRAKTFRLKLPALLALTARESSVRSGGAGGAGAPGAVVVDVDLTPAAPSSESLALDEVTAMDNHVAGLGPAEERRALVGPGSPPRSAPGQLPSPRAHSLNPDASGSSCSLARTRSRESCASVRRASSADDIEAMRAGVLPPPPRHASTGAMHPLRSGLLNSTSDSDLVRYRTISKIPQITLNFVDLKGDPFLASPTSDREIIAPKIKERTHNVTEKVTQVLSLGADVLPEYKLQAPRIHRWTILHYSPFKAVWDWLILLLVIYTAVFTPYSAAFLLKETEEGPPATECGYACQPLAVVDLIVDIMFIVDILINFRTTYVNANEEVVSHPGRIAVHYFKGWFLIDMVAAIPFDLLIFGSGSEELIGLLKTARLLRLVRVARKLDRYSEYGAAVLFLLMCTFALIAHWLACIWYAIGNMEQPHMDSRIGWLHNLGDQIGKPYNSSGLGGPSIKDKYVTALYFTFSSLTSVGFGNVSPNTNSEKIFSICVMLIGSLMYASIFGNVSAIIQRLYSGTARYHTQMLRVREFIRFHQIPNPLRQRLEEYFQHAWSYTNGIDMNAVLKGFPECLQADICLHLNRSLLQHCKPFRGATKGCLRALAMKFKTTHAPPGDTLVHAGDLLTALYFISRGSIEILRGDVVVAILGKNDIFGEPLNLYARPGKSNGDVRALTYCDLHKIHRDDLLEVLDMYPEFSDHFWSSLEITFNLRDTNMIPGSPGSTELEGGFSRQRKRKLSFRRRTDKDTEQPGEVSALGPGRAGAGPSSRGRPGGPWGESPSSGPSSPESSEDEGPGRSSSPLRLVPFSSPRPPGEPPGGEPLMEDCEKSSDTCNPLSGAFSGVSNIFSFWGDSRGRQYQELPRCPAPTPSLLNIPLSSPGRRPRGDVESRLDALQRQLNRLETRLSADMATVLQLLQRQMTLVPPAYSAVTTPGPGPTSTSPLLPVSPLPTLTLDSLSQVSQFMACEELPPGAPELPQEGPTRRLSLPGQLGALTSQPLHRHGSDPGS

| SMILES | hERG current change (%, negative = inhibition) at 1uM [%] |
| --- | --- |
| CCN(CC)S(=O)(=O)c1ccc(S(=O)(=O)N2CCN(CCC#N)CC2)cc1 | 8.96 |
| CCOc1ccc(N2C(=O)C3ON(C)C(c4ccc([N+](=O)[O-])cc4)C3C2=O)cc1 (centres unmarked) | 15.1 |
| CC(C)(C)C(=O)c1cn(Cc2ccccc2)c2ccccc12 | 17.3 |
| COc1ccccc1CNC(=O)CSCc1cnn(-c2ccccc2)c1-n1cccc1 | -1.84 |
| O=C(CCc1nc(-c2ccccc2)c(-c2ccccc2)o1)OCc1ccc(Cl)cc1 | 9.62 |
| O=C(c1cnccn1)N1CCN(C/C=C/c2ccccc2)CC1 | 9.98 |
| CCOC(=O)c1sc2nc(C)nc(NCc3ccc(F)cc3)c2c1C | 17.8 |
| Nc1cc(=O)[nH]c(SCC(=O)Nc2ccc3c(c2)CCC3)n1 | 6.83 |
| COc1ccc([N+](=O)[O-])cc1NC(=O)CCN1CCN(c2ccccc2OC)CC1 | 6.82 |
| COc1ccccc1NC(=O)NNC(=O)CN1C(=O)COc2ccccc21 | 15.7 |
| Cn1c(=O)oc2cc(S(=O)(=O)NC3CCCc4ccccc43)ccc21 (centres unmarked) | -6.46 |
| Cc1ccc(Cl)cc1NC(=S)NCc1cccn1C | 17.9 |
| CC1CCN(CC(=O)Nc2cccc([N+](=O)[O-])c2)CC1 | 13.6 |
| Cc1cccc(CN2CCc3c([nH]c4ccccc34)C2CC(C)C)n1 (centres unmarked) | 10.8 |
| CCOc1ccc(C(=O)NCC(=O)OCC(=O)N2CCCC2)cc1 | 13.2 |
| N/C(=N\OC(=O)Nc1ccccc1)c1ccno1 | 10.3 |
| C=C(C)CNC(=S)N/N=C(\C)c1ccc(Cl)s1 | 12.1 |
| NC(=O)CCS(=O)(=O)CCN1CCN(S(=O)(=O)c2ccc3c(c2)CCC3)CC1 | 4.14 |
| N#Cc1cc2c(nc1SCc1ccc(Cl)nc1)CCCCC2 | 6.05 |
| Cc1csc(=O)n1CC(=O)OCC(=O)Nc1ccc(Cl)cc1F | 8.55 |
| CC1CC1C(=O)OCC(=O)NC(=O)NCc1ccco1 (centres unmarked) | 4.71 |
| CCc1ccc(CN2CCCC(CCC(=O)N3CCN(c4ccccn4)CC3)C2)o1 (centres unmarked) | -34.1 |

| SMILES | hERG current change (%, negative = inhibition) at 1uM [%] |
| --- | --- |
| Nc1cc(Cl)ccc1C(=O)OCC(=O)NC1CCCCCCC1 | 5.48 |
| CC1Cc2ccccc2N1C(=O)CSc1nnc(NC(=O)Cc2cccs2)s1 (centres unmarked) | 3.74 |
| N/C(=N/OC(=O)c1ccc(Cl)cc1)c1ncc([N+](=O)[O-])s1 | 14 |
| O=C(NCc1cccnc1)C1CCN(C(=O)c2ccc(Cl)cc2Cl)CC1 | 11 |
| Cc1ccccc1C(=O)Nc1cccc(NC(=O)c2cccnc2)c1 | 5.01 |
| CCc1cc(=O)oc2cc(OCC(=O)NCCCn3ccnc3)ccc12 | 13.5 |
| Cc1ccccc1OCc1nc2ccccc2c(=O)n1/N=C/c1ccco1 | 11.4 |
| CCOc1ccccc1Nc1cc(C)nc2nc(C)nn12 | 0.639 |
| NN=C(c1cccc([N+](=O)[O-])c1)c1cccc([N+](=O)[O-])c1 | 8.63 |
| COCCNC(=O)NC(=O)COC(=O)Cc1ccc2c(c1)OCCO2 | -2.77 |
| O=C1OCC2=C1C(c1ccc(F)cc1)CC(=O)N2c1ccccc1 (centres unmarked) | -3.54 |
| COc1cc2cnc(-c3ccsc3)c(-c3ccc(F)cc3)c2cc1OC | 14 |
| CCCc1nnc(NS(=O)(=O)c2ccccc2)s1 | 12.5 |
| CCOC(=O)NC(=O)COC(=O)CCCc1nc2ccccc2s1 | 14 |
| COC(=O)CCC(=O)N(C)CC1CCCN(CCc2cccc(C(F)(F)F)c2)C1 (centres unmarked) | -39.9 |
| Cc1cc(C(C)(C)C)cc(C)c1C(=O)O | 1.08 |
| Cc1ccc(S(=O)(=O)NCC(=O)N(CC(=O)NCc2ccco2)Cc2ccccc2)cc1 | 12.8 |
| CCOc1ccc(-n2ccnc2SCC(=O)N2CCCc3ccccc32)cc1 | 10.3 |
| O=S(=O)(NC1CCCC1)c1ccccc1Cl | 2.51 |
| O=C(NC1CC2CCC1C2)C1COc2ccccc2O1 (centres unmarked) | 1.54 |
| O=C(N/N=C/c1cccnc1)c1ccco1 | 10.7 |
| COC(=O)Nc1ccc(S(=O)(=O)n2cnc3ccccc32)cc1 | -12.5 |
